Experimental findings from article PMC4336329 (PLoS ONE, 2015) are described below.

Molecules are shown by their SMILES. In all, about 310,000 compounds went through this assay and about 14,000 (4.5%) showed an effect of 50% or more. Effects have a minus sign here. This is one part of the list.
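Further: peak tail current of the secondary pulse compared with the same well before compound.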

human ether-à-go-go-related gene (hERG) potassium channel, sequence (Q12809 whole entry, looked up): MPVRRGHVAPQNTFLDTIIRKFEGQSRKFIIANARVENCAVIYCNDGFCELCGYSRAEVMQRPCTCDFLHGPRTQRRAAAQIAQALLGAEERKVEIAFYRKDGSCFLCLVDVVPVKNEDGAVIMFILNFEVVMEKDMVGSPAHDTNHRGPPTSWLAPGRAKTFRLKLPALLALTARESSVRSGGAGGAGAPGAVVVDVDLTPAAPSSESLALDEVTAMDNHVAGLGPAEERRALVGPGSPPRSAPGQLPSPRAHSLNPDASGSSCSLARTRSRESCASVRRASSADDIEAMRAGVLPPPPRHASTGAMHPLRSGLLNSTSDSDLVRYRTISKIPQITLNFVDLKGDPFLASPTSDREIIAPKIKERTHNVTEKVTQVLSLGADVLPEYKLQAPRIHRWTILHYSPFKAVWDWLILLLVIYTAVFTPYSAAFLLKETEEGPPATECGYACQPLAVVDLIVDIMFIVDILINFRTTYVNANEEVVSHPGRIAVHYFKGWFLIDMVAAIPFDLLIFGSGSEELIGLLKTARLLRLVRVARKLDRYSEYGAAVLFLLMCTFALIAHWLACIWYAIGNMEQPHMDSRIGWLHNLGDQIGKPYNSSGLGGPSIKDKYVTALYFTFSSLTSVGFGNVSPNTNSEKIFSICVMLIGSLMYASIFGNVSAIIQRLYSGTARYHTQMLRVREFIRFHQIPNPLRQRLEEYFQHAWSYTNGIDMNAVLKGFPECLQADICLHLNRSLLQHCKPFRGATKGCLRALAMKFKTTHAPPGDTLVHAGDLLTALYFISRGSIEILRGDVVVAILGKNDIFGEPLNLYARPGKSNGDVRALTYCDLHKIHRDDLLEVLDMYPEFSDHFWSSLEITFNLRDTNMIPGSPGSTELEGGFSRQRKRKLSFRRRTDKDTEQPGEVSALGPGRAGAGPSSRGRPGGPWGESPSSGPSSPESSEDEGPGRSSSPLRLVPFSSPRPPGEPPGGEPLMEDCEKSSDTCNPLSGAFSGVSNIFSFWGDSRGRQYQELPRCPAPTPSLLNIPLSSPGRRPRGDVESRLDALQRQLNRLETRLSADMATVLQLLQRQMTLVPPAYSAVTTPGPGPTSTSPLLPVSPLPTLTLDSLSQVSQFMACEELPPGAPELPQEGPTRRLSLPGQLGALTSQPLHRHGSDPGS

The test addresses human ether-à-go-go-related gene (hERG) potassium channel (human, UniProt Q12809). Nature of the test: primary screen, population patch clamp on CHO cells stably expressing hERG.
Regarding `CCCc1[nH]nc2c1C(c1ccc(OCCN3CCOCC3)c(OC)c1)C(C#N)=C(N)O2` (stereo not drawn), the “hERG current change (%, negative = inhibition) at 10uM” value is recorded as -2.95%. With `COC(=O)c1cc(C(=O)OCC(=O)Nc2ccccc2OC(F)F)cc([N+](=O)[O-])c1` the figure was -30.3%. With `COc1cc([N+](=O)[O-])ccc1NC(=O)Nc1cnccn1` the figure was 5.34%; with `O=C1COc2ccc(-c3csc(=Nc4ccc(OC(F)F)cc4)n3CC3CCCO3)cc2N1` (stereo not drawn), -18.7%; with `COc1cc(CN2CCNC(=O)C2CC(=O)NCCC2=CCCCC2)cc(OC)c1` (stereo not drawn), 0.0765%.

Take `O=C(N/N=C/c1ccc([N+](=O)[O-])cc1)c1ccc(NS(=O)(=O)c2cccs2)cc1`: the “hERG current change (%, negative = inhibition) at 10uM” value is given as 6.35%. On to `Cc1cccc(C(=O)NCCN2CCN(c3ccccc3)CC2)c1.Cl`, for which the “hERG current change (%, negative = inhibition) at 10uM” value is reported as -37.1%. Consider `O=[N+]([O-])c1cc(C(F)(F)F)cc([N+](=O)[O-])c1NCCNC(=S)Nc1cccc(F)c1`, for which the “hERG current change (%, negative = inhibition) at 10uM” value was -1.74%. For `COc1ccc(-n2cnc3c(cnn3CCC#N)c2=N)cc1` the value was -10.1%; for `CCC/C(=N\NC(=O)c1ccc(CSc2nncn2C)cc1)c1ccccc1`, -8.28%; for `COc1ccccc1/C=C(/C(=O)OCC(=O)Nc1ccccc1C(C)C)c1ccccc1`, 18.3%. For `Cc1cc(N2CCOCC2)nc2ccc(NC(=S)NC(C)C)cc12` the value was -12.4%; for `COc1ccc(NC(=O)c2ccc3c(c2)OCO3)cc1Cl`, 5.02%. On to `CN(CC(=O)Nc1ccccc1Sc1ccccc1)C1CCCCC1`, for which the “hERG current change (%, negative = inhibition) at 10uM” value was found to be 2.53%.

Consider `CCOCCCNC(=O)CCSc1ccc(C)cc1`, for which the “hERG current change (%, negative = inhibition) at 10uM” value turned out to be 8.23%. For `Cc1cccc(NC(=O)Nc2ccc(Cl)c(Cl)c2)n1` the value was 9.38%. For `C#CCOCCOCCOCCNc1nc(N2CCN(C(=O)C(Cc3ccc(O)cc3)n3cc(C(N)CC(C)C)nn3)CC2)nc(N2CCN(C(=O)C(Cc3cc4ccccc4[nH]3)n3cc(C(N)Cc4ccc(O)cc4)nn3)CC2)n1.Cl` (stereo not drawn) the value was -5.48%; for `COc1ccc(Nc2nc(N)nc(SCc3nnc(C)s3)n2)cc1`, -1.03%.

Consider `COc1cc(CCC(=O)N2CCN(c3cccc(C)c3C)CC2)cc(OC)c1OC`, for which the “hERG current change (%, negative = inhibition) at 10uM” value is on record as -2.88%. For `CC(=O)N(C)C(c1ccc(N(C)C)cc1)c1nnnn1-c1c(C)cccc1C` (stereo not drawn) the value was -7.93%. For `COc1ccc(CN(C(=O)c2cc(=O)c3ccccc3o2)C2CCS(=O)(=O)C2)cc1` (stereo not drawn) the value was -30.4%. Regarding `N#Cc1ccc(OCC(=O)OCC(=O)NCCC2=CCCCC2)cc1`, the “hERG current change (%, negative = inhibition) at 10uM” value is on record as -1.95%.

As for `Cl.OC(c1ccc(Cl)cc1)c1nccc2ccccc12` (stereo not drawn), the “hERG current change (%, negative = inhibition) at 10uM” value was -17.4%.

As to `COc1ccc(C(=O)NCC(=O)OCc2ccc([N+](=O)[O-])cc2)cc1`, the “hERG current change (%, negative = inhibition) at 10uM” value is -58.3%. With `Cc1ccc(NC(=O)c2oc3ccccc3c2NC(=O)C2CCCO2)cc1C` (stereo not drawn) the figure was -8.51%; with `COCCn1c(C)cc(/C=N/NC(=O)c2cc3ccccc3cc2O)c1C`, 10.3%; with `COc1cccc(/C=N/n2c(=O)[nH]c3ccccc32)c1OC`, 10.7%. For `COc1ccc(CN2CC34C=CC(O3)C(C(=O)O)C4C2=O)cc1` (stereo not drawn) the value was -8.51%; for `COC(=O)[C@]1(C)N[C@H](c2ccc(SC3CCCCC3)c(OC)c2)[C@@H]2C(=O)N(C)C(=O)[C@@H]21.O=C(O)C(F)(F)F`, -16.6%. For `CCc1cccc(OCC(=O)Nc2ccc(S(=O)(=O)Nc3onc(C)c3C)cc2)c1` the value was 8.4%; for `CCOc1ccc(S(=O)(=O)n2nc(C)cc2C)c2ccccc12`, 6.85%.

In the case of `CC(=O)N1CCC(N(CCN2CCOCC2)C(=S)Nc2cccc(C)c2C)CC1`, the “hERG current change (%, negative = inhibition) at 10uM” value was determined as 8.75%. For `COc1cc(OC)c(OC)cc1/C=N/Nc1ncnc2c1[nH]c1ccc(C)cc12` the value was 1.59%; for `NC(=O)CSc1nnc(-c2ccco2)n1N`, 4%. For `Cc1nnc(NC(=O)CSc2nnc(CNC(=O)c3ccc(S(=O)(=O)N(C)C)cc3)o2)s1` the value was 22.6%. For `COc1cccc(C(=O)NCC(=O)N/N=C/c2cccs2)c1` the value was -0.489%; for `Cc1nc(COc2ccc(C(=O)Nc3ccccc3N3CCOCC3)cc2)cs1`, -49.1%. For `O=C(O)c1cc(N/N=C/c2ccc(N3CCOCC3)s2)ccc1Cl`, the “hERG current change (%, negative = inhibition) at 10uM” value worked out at 6.61%. Regarding `COc1ccc(-n2nc3c(c2NC(=O)C(C)Oc2ccccc2)CS(=O)C3)cc1` (stereo not drawn), the “hERG current change (%, negative = inhibition) at 10uM” value came to 15%. With `[O-]/[N+](=C\c1ccncc1)c1ccc(Br)cc1` the figure was 1.3%. In the case of `Cc1ccccc1C(=O)Nc1c2c(nc3ccccc13)CCCC2`, the “hERG current change (%, negative = inhibition) at 10uM” value was -5.54%. As to `O=C(Nc1ccc(C(=O)O)cc1)Nc1cccc([N+](=O)[O-])c1`, the “hERG current change (%, negative = inhibition) at 10uM” value stood at 32.1%.
